According to PMC4409396:
Where two headings read alike, the source gives them in different places. Results are given in words; binding and its absence hold for the method and conditions named. Some entries that bind do so weakly or less than the wild type.

By UniProt entry, the sequences of proteins in these tests, tags left out.
UniProt P23545: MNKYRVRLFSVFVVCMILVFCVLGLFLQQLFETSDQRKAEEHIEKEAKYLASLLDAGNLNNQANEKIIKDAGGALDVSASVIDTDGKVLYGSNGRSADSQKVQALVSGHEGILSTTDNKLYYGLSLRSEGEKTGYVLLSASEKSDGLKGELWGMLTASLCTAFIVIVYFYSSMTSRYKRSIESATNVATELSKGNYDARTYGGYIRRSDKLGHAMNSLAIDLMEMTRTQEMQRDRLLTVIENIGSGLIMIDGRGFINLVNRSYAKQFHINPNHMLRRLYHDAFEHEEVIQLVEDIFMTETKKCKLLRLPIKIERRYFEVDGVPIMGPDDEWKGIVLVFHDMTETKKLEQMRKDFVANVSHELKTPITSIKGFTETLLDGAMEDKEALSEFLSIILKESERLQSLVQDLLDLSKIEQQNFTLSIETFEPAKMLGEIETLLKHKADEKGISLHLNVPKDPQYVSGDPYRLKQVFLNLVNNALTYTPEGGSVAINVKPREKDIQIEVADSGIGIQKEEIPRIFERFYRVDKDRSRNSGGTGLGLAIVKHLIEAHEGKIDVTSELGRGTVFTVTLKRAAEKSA

T1: FloA (Bacillus subtilis) (UniProt P54466)
T1 sequence: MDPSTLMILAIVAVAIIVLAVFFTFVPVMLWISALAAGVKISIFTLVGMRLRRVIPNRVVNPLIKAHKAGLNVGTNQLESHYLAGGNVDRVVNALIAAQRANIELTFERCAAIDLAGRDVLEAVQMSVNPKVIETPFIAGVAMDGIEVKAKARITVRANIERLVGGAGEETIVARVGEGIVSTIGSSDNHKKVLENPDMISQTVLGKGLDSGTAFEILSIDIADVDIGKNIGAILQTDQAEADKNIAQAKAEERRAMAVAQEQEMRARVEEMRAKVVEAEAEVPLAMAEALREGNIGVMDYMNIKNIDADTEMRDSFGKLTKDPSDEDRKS

T2: FloT (Bacillus subtilis) (UniProt O32076)
T2 sequence: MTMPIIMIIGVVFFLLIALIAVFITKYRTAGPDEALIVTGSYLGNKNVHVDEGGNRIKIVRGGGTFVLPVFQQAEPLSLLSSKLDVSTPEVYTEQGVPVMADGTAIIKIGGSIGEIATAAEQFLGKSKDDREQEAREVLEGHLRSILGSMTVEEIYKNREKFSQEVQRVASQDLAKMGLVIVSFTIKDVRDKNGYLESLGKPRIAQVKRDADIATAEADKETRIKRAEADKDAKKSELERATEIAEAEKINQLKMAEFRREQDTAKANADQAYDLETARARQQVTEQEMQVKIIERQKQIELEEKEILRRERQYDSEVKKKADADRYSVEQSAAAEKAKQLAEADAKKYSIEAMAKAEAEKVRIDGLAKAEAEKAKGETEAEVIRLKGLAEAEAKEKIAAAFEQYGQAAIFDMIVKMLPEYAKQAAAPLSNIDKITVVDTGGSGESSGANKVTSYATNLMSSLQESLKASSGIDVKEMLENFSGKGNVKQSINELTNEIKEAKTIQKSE


Key:
PhoR (Bacillus subtilis) = PhoR (Bacillus subtilis) (UniProt P23545); assay: two-hybrid; bacterial two-hybrid of PhoR with PhoR and ResE with ResE (pKNT25 and pUT18) in E. coli BTH101, without and with low, medium or high levels of His6-FloA or His6-FloT from pSEVA-621, -631, -641; Miller units
FloA (Bacillus subtilis) [1] = molecular target: T1, FloA (Bacillus subtilis); assay: two-hybrid; bacterial two-hybrid (adenylate cyclase T25/T18 fusions from pKNT25 and pUT18) in E. coli BTH101; lacZ reporter, X-Gal plates 48 h at 30°C and Miller units; positive signal defined as ≥ 700 Miller Units
FloT (Bacillus subtilis) [2] = molecular target: T2, FloT (Bacillus subtilis); assay: as above
ResE (Bacillus subtilis) = ResE (Bacillus subtilis) (UniProt P35164); assay: two-hybrid; bacterial two-hybrid of PhoR with PhoR and ResE with ResE (pKNT25 and pUT18) in E. coli BTH101, without and with low, medium or high levels of His6-FloA or His6-FloT from pSEVA-621, -631, -641; Miller units
FloA (Bacillus subtilis) [3] = molecular target: T1, FloA (Bacillus subtilis); assay: two-hybrid; bacterial two-hybrid (adenylate cyclase T25/T18 fusions from pKNT25 and pUT18) in E. coli BTH101; lacZ reporter, X-Gal plates 48 h at 30°C and Miller units; positive signal defined as ≥ 700 Miller Units; remark: listed apart in the source
FloT (Bacillus subtilis) [4] = molecular target: T2, FloT (Bacillus subtilis); assay: as above; remark: listed apart in the source

binding (PhoR (Bacillus subtilis)) | binding (FloA (Bacillus subtilis) [1]) | binding (FloT (Bacillus subtilis) [2]) | binding (ResE (Bacillus subtilis)) | binding (FloA (Bacillus subtilis) [3]) | binding (FloT (Bacillus subtilis) [4]) | Molecule
binds | binds | no binding |  |  |  | PhoR (from UniProt P23545 1-579)
 |  |  | binds | no binding | binds | ResE (protein, UniProt P35164 1-589) MKFWKSVVGKLWFTILSLVLIVLFILTVLLLEFIENYHVEEAENDLTQLANKVAVILENHEDQALARSITWELADNLTSIAIIQDEKNHWYSPNDKNRLSSITVEQIQHDKDLNKALKDHKKVSKRTGLSDTDTDNERLIVGVPYEKDGKKGMVFLSQSLLAVKDTTKHTTRYIFLAAGIAIVLTTFFAFFLSSRVTYPLRKMREGAQDLAKGKFDTKIPILTQDEIGELATAFNQMGRQLNFHINALNQEKEQLSNILSSMADGVITINIDGTILVTNPPAERFLQAWYYEQNMNIKEGDNLPPEAKELFQNAVSTEKEQMIEMTLQGRSWVLLMSPLYAESHVRGAVAVLRDMTEERRLDKLREDFIANVSHELRTPISMLQGYSEAIVDDIASSEEDRKEIAQIIYDESLRMGRLVNDLLDLARMESGHTGLHYEKINVNEFLEKIIRKFSGVAKEKNIALDHDISLTEEEFMFDEDKMEQVFTNLIDNALRHTSAGGSVSISVHSVKDGLKIDIKDSGSGIPEEDLPFIFERFYKADKARTRGRAGTGLGLAIVKNIVEAHNGSITVHSRIDKGTTFSFYIPTKR
 |  |  |  | binds | binds | FloA (protein, UniProt P54466 1-331) MDPSTLMILAIVAVAIIVLAVFFTFVPVMLWISALAAGVKISIFTLVGMRLRRVIPNRVVNPLIKAHKAGLNVGTNQLESHYLAGGNVDRVVNALIAAQRANIELTFERCAAIDLAGRDVLEAVQMSVNPKVIETPFIAGVAMDGIEVKAKARITVRANIERLVGGAGEETIVARVGEGIVSTIGSSDNHKKVLENPDMISQTVLGKGLDSGTAFEILSIDIADVDIGKNIGAILQTDQAEADKNIAQAKAEERRAMAVAQEQEMRARVEEMRAKVVEAEAEVPLAMAEALREGNIGVMDYMNIKNIDADTEMRDSFGKLTKDPSDEDRKS
